Test results published in PubChem BioAssay AID1347120 (National Center for Advancing Translational Sciences (NCATS), 2019).
Hit rate of the full screen: of about 390,000 compounds, about 930 (0.24%) were called active. The shares of active, inactive and inconclusive entries below differ from those in the screen. The call rests on the fitted dose curve; in most records, active means well fitted activation curve with a large enough effect; inconclusive means small, poorly fitted or top-dose-only effect; inactive means no such curve, though single readings can be large or run the other way. Where the call is inconclusive, the potency comes from a doubtful curve fit.

Experiment: qHTS for Suppressors of FUS Proteinopathy: Primary screen using FUS-linked yeast assay; further: nearly all actives have a fitted effect of over 55% in size;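 on growth rescue (activation): plate controls were DMSO vehicle for no effect and reference control for full effect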
Settings: S. cerevisiae FUS-expressing, OD600, 24 h; Potency: growth rescue; growth rescue (activation): at 76.6 µM (top of the series)
Procedure, shortened: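 FUS-expressing yeast, raffinose-pregrown, induced in 2% galactose minimal medium at OD 0.005; compounds in a dilution series, 24hr at 30C. Growth restoration read as absorbance at 600 nm. CP55940 positive control, DMSO negative.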
Potency means the concentration at half of the fitted maximal effect; tags describe the fitted curve by direction and shape.

Row | Compound | Potency | growth rescue (activation)
1 | Nc1c(C(=O)NCc2ccco2)c2nc3ccccc3nc2n1Cc1ccccc1 | inconclusive: 50.1 µM [activator, single point] | –
2 | O=C1CC(N2CCC(n3c(=O)[nH]c4ccccc43)CC2)C(=O)N1Cc1ccccc1 (centres undefined) | inactive | –
3 | CC(C)(C)n1nnnc1C(CCc1ccccc1)N1CCC(n2c(=O)[nH]c3ccccc32)CC1 (centres undefined) | inconclusive: 7.08 µM [activator, full curve] | –
4 | C/C=C(\C)C(=O)N[C@@H](c1ccccc1)[C@@H](O)C(=O)O[C@H]1C[C@@]2(O)[C@@H](OC(=O)c3ccccc3)C3[C@](C)(C(=O)[C@H](OC(C)=O)C(=C1C)C2(C)C)[C@@H](O)C[C@H]1OC[C@@]31OC(C)=O (some centres undefined) | inconclusive: 14.1 µM [activator, partial curve, poor fit] | –
5 | COc1ccc(/C=C/C(=O)c2c(O)n(CCC3=CCCCC3)c(=O)[nH]c2=O)cc1 | inconclusive: 4.47 µM [activator, partial curve, poor fit] | –
6 | COc1ccc(-n2c(O)c(C(C)=NCCN3CCNCC3)c(=O)[nH]c2=O)cc1 | inconclusive: 22.4 µM [activator, partial curve] | –
7 | C=CCn1c(O)c(C(C)=NCc2cccnc2)c(=O)[nH]c1=O | – | inconclusive: 79.2% [activator]
8 | C=C(COC(=O)CCC(=O)O)CC1CC(O)[C@]2(C)OC3CC4OC5C[C@]6(C)O[C@]7(C)CCC8OC9C[C@]%10(C)OC%11C(C)=CC(=O)OC%11CC%10OC9C[C@@H](C)C8OC7CC6O[C@]5(C)C/C=C\C4OC3CC2O1 (some centres undefined) | active: 7.08 µM | –
9 | Cc1cc(C)cc(-n2c(/C=C/c3cccc(F)c3)nc3ccccc3c2=O)c1 | inconclusive: 31.6 µM [activator, partial curve, poor fit] | –
10 | COC(=O)C1=C(c2ccc(Cl)c(C(F)(F)F)c2)C[C@@H]2CC[C@H]1N2C(=O)NCCOc1ccc(OC)cc1 | inconclusive: 14.1 µM [activator, partial curve, poor fit] | –
11 | O=C1NCN(c2ccccc2)C12CCN(C(c1ccccc1OC(F)(F)F)c1nnnn1Cc1ccccc1)CC2 (centres undefined) | active: 10 µM | –
12 | O=C(N/N=C1/CN2CCC1CC2)c1cc2ccccc2cc1O | inconclusive: 39.8 µM [activator, partial curve, poor fit] | –
13 | CCCNC(=O)c1c(N)n(CC2CCCO2)c2nc3ccccc3nc12 (centres undefined) | inconclusive: 50.1 µM [activator, single point] | –
14 | C[N+]1(C)C2CC[C@H]1CC(OC(=O)C(CO)c1ccccc1)C2 (some centres undefined) | inactive | –
15 | COc1ccc(NC(=O)CN2C(=O)C(C)N=C(c3ccccc3F)c3cc(Cl)ccc32)c(OC)c1 (centres undefined) | inconclusive: 20 µM [activator, partial curve, poor fit] | –
16 | Cc1onc(-c2c(Cl)cccc2Cl)c1C(=O)Nc1ccc2c(C(F)(F)F)cc(=O)oc2c1 | inconclusive: 1 µM [activator, full curve, poor fit] | –
17 | O=C1NC(=O)C(CCc2ccncc2)(Cc2ccc3c(c2)OCO3)C(=O)N1CCc1ccccc1 (centres undefined) | – | inconclusive: 88% [activator]

Row | Compound | Potency | growth rescue (activation)
18 | COC(=O)C1=C(c2ccc(OCc3ccccc3)cc2)C[C@@H]2CC[C@H]1N2C(=O)NCc1ccc2c(c1)OCO2 | inconclusive: 31.6 µM [activator, single point] | –
19 | COc1ccc(OC)c(NC(=O)Cn2cc(C(=O)c3ccccc3F)c3ccccc32)c1 | inconclusive: 25.1 µM [activator, single point] | –
20 | CCCCCCNc1nc(OC)nc(N2CC3CC(C2)c2cccc(=O)n2C3)n1 (centres undefined) | inconclusive: 17.8 µM [activator, partial curve, poor fit] | –
21 | O=C1NC(=O)N(Cc2ccco2)C(=O)/C1=C/C=C/c1ccco1 | inconclusive: 7.94 µM [activator, full curve] | –
22 | CC/C=C/CC(=O)N[C@@H](c1ccccc1)[C@@H](O)C(=O)O[C@H]1C[C@@]2(O)[C@@H](OC(=O)c3ccccc3)C3[C@](C)(C(=O)[C@H](OC(C)=O)C(=C1C)C2(C)C)[C@@H](O)C[C@H]1OC[C@@]31OC(C)=O (some centres undefined) | inconclusive: 20 µM [activator, single point] | –
23 | O=c1c2ccccc2nc(/C=C/c2cccc3ccccc23)n1-c1ccccc1Cl | inconclusive: 28.2 µM [activator, single point] | –
24 | c1ccc(-c2ccc(-c3n(-c4ccccn4)c4ccccc4[n+]3-c3ccccn3)cc2)cc1 | inconclusive: 22.4 µM [activator, partial curve] | –
25 | C#C[C@@]1(O)CCC2C3CCC4=C/C(=N/OCC(=O)NC(C(=O)NC(CC(C)C)C(=O)O)C(C)C)CC[C@]4(C)C3CC[C@@]21C (some centres undefined) | inconclusive: 11.2 µM [activator, partial curve] | –
26 | COC(=O)C1=C(c2ccc3ccccc3c2)C[C@@H]2CC[C@H]1N2C(=O)NCc1ccco1 | inactive | –
27 | Cc1nc2cc(C(F)(F)F)ccc2n1C1CCN(Cc2nnnn2CCc2ccccc2)CC1 | inconclusive: 44.7 µM [activator, single point] | –
28 | Cc1cccc(-n2c(/C=C/c3ccccc3O)nc3ccccc3c2=O)c1 | inactive | –
29 | CN1C(=O)/C(=C/c2cccn2-c2ccc3ccccc3c2)C(=O)NC1=S | inconclusive: 22.4 µM [activator, partial curve] | –
30 | O=c1[nH]c2ccccc2n1C1CCN(C(c2cc3ccccc3o2)c2nnnn2-c2ccc3c(c2)OCCO3)CC1 (centres undefined) | inconclusive: 25.1 µM [activator, partial curve, poor fit] | –
31 | CC(=O)Nc1ccc(N=Cc2c(O)n(Cc3ccco3)c(=O)[nH]c2=O)cc1 | inconclusive: 28.2 µM [activator, partial curve, poor fit] | –
32 | CC(=O)OCC[N+](C)(C)C | – | inconclusive: -72.4% [activator]
33 | NC1=C([N+](=O)[O-])C(c2ccc3c(c2)OCO3)c2c(c3ccccc3oc2=O)O1 (centres undefined) | inactive | –
34 | Cc1c(C)c2ccc(OCC(=O)N3CCC(C(=O)O)(c4ccccc4)CC3)cc2oc1=O | inconclusive: 25.1 µM [activator, partial curve, poor fit] | –
